Test results reported in PubChem BioAssay AID1030 (National Center for Advancing Translational Sciences (NCATS), 2008).
About 16,000 (7.3%) of roughly 220,000 compounds were called active. Inconclusive results, whose numbers are uncertain, are shown with a selection of clear calls. Calls follow the shape of the dose curve; as a rule, active = well fitted inhibition curve with a large enough effect (not every such curve was filed as active); inconclusive = small, poorly fitted or top-dose-only effect, or another doubt; inactive = no such curve, though single readings can be large or run the other way. Potencies of inconclusive entries are left out as doubtful fits.

Each compound was assayed against Aldehyde dehydrogenase 1A1 (Homo sapiens) (UniProt P00352) (assay: qHTS Assay for Inhibitors of Aldehyde Dehydrogenase 1 (ALDH1A1)). Conditions: Purified ALDH1A1, NADH fluorescence, propionaldehyde substrate; series mostly up to 75.3 µM.
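For activity, negative = inhibition in this document: plate controls were no enzyme wells and a reference inhibitor.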
Potency is read from the fitted curve at half-maximal effect; tags tell the direction and shape of the fitted curve.

Chain of UniProt P00352 (P00352 whole entry, looked up): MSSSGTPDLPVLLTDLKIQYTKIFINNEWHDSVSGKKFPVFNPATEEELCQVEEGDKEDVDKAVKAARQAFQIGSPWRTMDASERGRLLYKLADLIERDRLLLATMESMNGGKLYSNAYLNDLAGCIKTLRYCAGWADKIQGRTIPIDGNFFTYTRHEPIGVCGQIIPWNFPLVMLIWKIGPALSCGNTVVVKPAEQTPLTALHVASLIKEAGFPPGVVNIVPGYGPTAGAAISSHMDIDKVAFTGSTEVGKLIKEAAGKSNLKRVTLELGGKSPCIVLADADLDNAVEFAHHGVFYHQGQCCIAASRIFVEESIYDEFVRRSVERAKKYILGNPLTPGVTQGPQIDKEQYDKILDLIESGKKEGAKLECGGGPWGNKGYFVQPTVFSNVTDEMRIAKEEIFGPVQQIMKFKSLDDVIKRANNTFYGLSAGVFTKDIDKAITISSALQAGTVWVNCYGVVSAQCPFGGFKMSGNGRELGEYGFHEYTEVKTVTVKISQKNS

| SMILES | Potency | activity, negative = inhibition |
| --- | --- | --- |
| CCN(CC)c1ccc(C=Nc2ccc(C)cc2)c(O)c1 | inconclusive [inhibitor, single point] | – |
| CCOc1ccccc1N(CC(=O)Nc1ccc2c(c1)OCO2)S(C)(=O)=O | inactive | – |
| Cc1nc2cnc(Oc3ccccc3)nc2n(-c2ccccc2)c1=O | active: 22.4 µM | – |
| CCCc1cc(=O)[nH]c(Nc2ccc(OC)c(Cl)c2)n1 | inactive | – |
| CC(=O)Nc1cccc(C(=O)O)n1 | inactive | – |
| Cc1ccccc1Nc1c(-c2cccnc2)nc2cccc(C)n12 | inconclusive [inhibitor, single point] | – |
| O=C(CN1CCN(Cc2ccc3c(c2)OCO3)CC1)N1CCc2[nH]c3ccc(F)cc3c2C1 | inconclusive [inhibitor, single point] | – |
| Cc1cc(O)c(C(=O)c2ccccc2C(=O)O)cc1C | active: 17.8 µM | – |
| NNC(=O)CSCc1ccc(Cl)cc1Cl | inconclusive [inhibitor, full curve] | – |
| O=C(Nc1ccc(Cl)c(Cl)c1)c1ccc(Cn2cc(Cl)cn2)cc1 | inactive | – |
| CCOc1cc(/C=N/NC(=O)CSc2nncn2C)ccc1OCc1cccc(C)c1 | inconclusive [inhibitor, single point] | – |
| COc1ccc(CC(=O)NCc2cn3ccsc3n2)cc1 | inactive | – |
| CCCCCCCCC(=O)NNC(=O)c1c(O)c2ccccc2n(CCC)c1=O | inactive | – |
| O=C(CCC1COc2ccccc2O1)NCC1COc2ccccc2O1 (stereo unspecified) | inactive | – |
| C/C=C/c1ccc(OCCOc2ccc(C=O)cc2OC)c(OC)c1 | inactive | – |
| OCCCc1n[nH]c(=S)n1-c1ccccc1 | inconclusive [inhibitor, single point] | – |
| COc1ccc(-c2cc(-c3c(O)c(OC)c4occc4c3OC)[nH]n2)cc1OC | inconclusive [inhibitor, single point] | – |
| CCn1c(C)c(CS(=O)(=O)c2ccccc2)[nH]c1=O | active: 22.4 µM | – |
| CCc1nnc(NC(=O)c2ccc(-c3ccc([N+](=O)[O-])cc3Cl)o2)s1 | inconclusive [inhibitor, single point] | – |
| COc1cccc(C2C3=C(N=c4s/c(=C\c5ccccc5O)c(=O)n42)c2ccccc2CC3)c1OC (stereo unspecified) | inconclusive [inhibitor, single point] | – |
| CCOC(=O)c1c(C)c(C(=O)NCc2ccco2)c(C)n1Cc1ccccc1 | inactive | – |
| COc1ccc(-c2nc3ccccc3n2Cc2ccc(C)cc2)cc1 | inactive | – |
| COc1ccc(NC(=O)c2cc3nc(-c4ccccc4)cc(C)n3n2)cc1OC | inactive | – |

| SMILES | Potency | activity, negative = inhibition |
| --- | --- | --- |
| CCCCCC(=O)Nc1nc(C)c(-c2csc(Nc3cc(Cl)ccc3C)n2)s1 | inconclusive [inhibitor, single point] | – |
| COC(=O)C1=C(C(=O)OC)[C@@H]2N(Cc3ccccc3)c3ccccc3[C@@]23C[C@@H](C(=O)OC)N(S(=O)(=O)c2ccc4c(c2)OCCN4C)C3=N1 | – | inactive: -1.81% [at 13.5 µM] |
| Cc1c(C(=O)O)sc(S(=O)(=O)N2CCNCC2)c1C(=O)O | inconclusive [inhibitor, single point] | – |
| Cc1cc(C)c2nc(NCCCNC(=S)NCCCN(C)C)c(C#N)cc2c1 | inconclusive [inhibitor, single point] | – |
| Cc1nc2c(C)cccc2cc1C(=O)N/N=C/c1ccc(N(C)C)cc1 | active: 11.2 µM | – |
| CCC(C)Sc1nc2c(c(=O)[nH]1)C(c1cccs1)C1=C(CCCC1=O)N2 (stereo unspecified) | inconclusive [inhibitor, partial curve] | – |
| COc1ccc(NC(=O)CSc2nc3ccccc3c(=O)n2CCCN2CCC(C)CC2)c(OC)c1 | inactive | – |
| CCOc1c2ccc(C(=O)N[C@H](C)C3CCCCC3)cc2nn1CCOC | inconclusive [inhibitor, partial curve] | – |
| Cc1cc(C)nc(SCc2cc(=O)c(OC(=O)c3cccc([N+](=O)[O-])c3)co2)n1 | active: 0.0562 µM | – |
| CC(C)N1CCN(c2ccc(OC[C@@H]3CO[C@@](Cn4cncn4)(c4ccc(Cl)cc4Cl)O3)cc2)CC1 | inactive | – |
| Cc1cccc2c(=O)cc(C)n(Cc3ccccc3)c12 | inconclusive [inhibitor, single point] | – |
| COc1ccc2oc(C(=O)C3CC3)c(N)c2c1 | inconclusive [inhibitor, single point] | – |
| CCOC(=O)C1CN(S(=O)(=O)c2ccc(OC)cc2)c2cc(CC(=O)OC)ccc2O1 (stereo unspecified) | inconclusive [inhibitor, partial curve] | – |
| COc1ccc(OCC(=O)NC(=S)Nc2ccccc2F)cc1 | inconclusive [inhibitor, single point] | – |
| Cc1ccc(NC(=O)C(=O)NCC2CCCO2)cc1 (stereo unspecified) | inconclusive [inhibitor, single point] | – |
| CS(=O)(=O)N1CCN(c2ccccc2NC(=O)c2ccc(-c3ccc(Br)cc3)o2)CC1 | inconclusive [inhibitor, partial curve] | – |
| O=C(CNC(=O)c1ccco1)OCC(=O)c1ccc2ccccc2c1 | inconclusive [inhibitor, single point] | – |
| C=C(C)c1cccc(C(C)(C)NC(=O)N2CCCCC2CC)c1 (stereo unspecified) | inconclusive [inhibitor, single point] | – |
| COc1ccc(OC)c(/C=N/NC(=O)c2ccc(N(C)S(=O)(=O)c3ccccc3)cc2)c1 | inconclusive [inhibitor, single point] | – |
| CC(=O)c1c(C)nc(-c2ccc3c(c2)OCO3)n1O | inconclusive [inhibitor, single point] | – |
| O=C(NCCCCNC(=O)C(F)(F)F)C(F)(F)F | inconclusive [inhibitor, single point] | – |
| COc1ccc(C2=NN3C(=O)c4c(ccc(OC)c4OC)C3C2)cc1 (stereo unspecified) | inconclusive [inhibitor, single point] | – |
| CCCCCCC(=O)Nc1nc(C)c(-c2csc(Nc3ccccc3OC)n2)s1 | inconclusive [inhibitor, partial curve] | – |
